# This is one part of the list.
# Experiments:
# Assay in all cases: glycan array binding signal (z-score within array); higher = stronger binding
# Settings in all cases: glycan notation: IUPAC condensed, linker removed; mutation: I144G
# [1] = biological target: Fuc(a1-2)Gal
# Outline: (§1)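 Glycan array data came from 3228 arrays in the Consortium for Functional Glycomics database, and only arrays with an available protein sequence were kept. Glycan names were put into IUPAC-condensed notation, and columns mapping to the same glycan were averaged. The binding signal is a within-array Z-score, averaged across arrays of one protein sequence run at different concentrations or buffers and across linkers. A negative Z-score can be read as non-binding.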
# [2] = biological target: Fuc(a1-2)Gal(b1-3)GalNAc
# Outline: as §1
# [3] = biological target: Fuc(a1-2)Gal(b1-3)GalNAc(a1-3)[Fuc(a1-2)]Gal(b1-4)Glc
# Outline: as §1
# [4] = biological target: Fuc(a1-2)Gal(b1-3)GalNAc(a1-3)[Fuc(a1-2)]Gal(b1-4)GlcNAc
# Outline: as §1
# [5] = biological target: Fuc(a1-2)Gal(b1-3)GalNAc(b1-3)Gal
# Outline: as §1
# [6] = biological target: Fuc(a1-2)Gal(b1-3)GalNAc(b1-3)Gal(a1-4)Gal(b1-4)Glc
# Outline: as §1
# [7] = biological target: Fuc(a1-2)Gal(b1-3)GalNAc(b1-4)[Neu5Ac(a2-3)]Gal(b1-4)Glc
# Outline: as §1
# [8] = biological target: Fuc(a1-2)Gal(b1-3)GlcNAc
# Outline: as §1
# [9] = biological target: Fuc(a1-2)Gal(b1-3)GlcNAc(b1-2)Man(a1-3)[Fuc(a1-2)Gal(b1-3)GlcNAc(b1-2)Man(a1-6)]Man(b1-4)GlcNAc(b1-4)GlcNAc
# Outline: as §1
# [10] = biological target: Fuc(a1-2)Gal(b1-3)GlcNAc(b1-2)Man(a1-3)[Fuc(a1-2)Gal(b1-3)GlcNAc(b1-2)Man(a1-6)]Man(b1-4)GlcNAc(b1-4)[Fuc(a1-6)]GlcNAc
# Outline: as §1
# [11] = biological target: Fuc(a1-2)Gal(b1-3)GlcNAc(b1-3)Gal(b1-4)Glc
# Outline: as §1
# [12] = biological target: Fuc(a1-2)Gal(b1-3)GlcNAc(b1-3)GalNAc
# Outline: as §1
# [13] = biological target: Fuc(a1-2)Gal(b1-3)GlcNAc(b1-3)[Fuc(a1-2)Gal(b1-3)GlcNAc(b1-6)]GalNAc
# Outline: as §1
# [14] = biological target: Fuc(a1-2)Gal(b1-3)GlcNAc(b1-3)[Gal(b1-4)GlcNAc(b1-6)]Gal(b1-4)Glc
# Outline: as §1
# [15] = biological target: Fuc(a1-2)Gal(b1-3)GlcNAc(b1-3)[Neu5Ac(a2-6)Gal(b1-4)GlcNAc(b1-6)]Gal(b1-4)Glc
# Outline: as §1
# [16] = biological target: Fuc(a1-2)Gal(b1-3)GlcNAc6S
# Outline: as §1
# [17] = biological target: Fuc(a1-2)Gal(b1-3)[Fuc(a1-4)]GlcNAc
# Outline: as §1
# [18] = biological target: Fuc(a1-2)Gal(b1-3)[Fuc(a1-4)]GlcNAc(b1-2)Man(a1-3)[Fuc(a1-2)Gal(b1-3)[Fuc(a1-4)]GlcNAc(b1-2)Man(a1-3)]Man(b1-4)GlcNAc(b1-4)GlcNAc
# Outline: as §1
# [19] = biological target: Fuc(a1-2)Gal(b1-3)[Fuc(a1-4)]GlcNAc(b1-2)Man(a1-3)[Fuc(a1-2)Gal(b1-3)[Fuc(a1-4)]GlcNAc(b1-2)Man(a1-6)]Man(b1-4)GlcNAc(b1-4)[Fuc(a1-6)]GlcNAc(b1-4)[Fuc(a1-6)]GlcNAc
# Outline: as §1
# [20] = biological target: Fuc(a1-2)Gal(b1-3)[Fuc(a1-4)]GlcNAc(b1-3)[Fuc(a1-3)[Gal(b1-4)]GlcNAc(b1-6)]Gal(b1-4)Glc
# Outline: as §1
# [21] = biological target: Fuc(a1-2)Gal(b1-3)[Fuc(a1-4)]GlcNAc(b1-3)[Gal(b1-4)GlcNAc(b1-6)]Gal(b1-4)Glc
# Outline: as §1
# [22] = biological target: Fuc(a1-2)Gal(b1-4)Fuc(a1-3)]GlcNAc(b1-2)Man(a1-3)[Fuc(a1-2)Gal(b1-4)[Fuc(a1-3)]GlcNAc(b1-2)Man(a1-6)]Man(b1-4)GlcNAc(b1-4)GlcNAc
# Outline: as §1
# [23] = biological target: Fuc(a1-2)Gal(b1-4)Glc
# Outline: as §1
# [24] = biological target: Fuc(a1-2)Gal(b1-4)Glc6S
# Outline: as §1
# [25] = biological target: Fuc(a1-2)Gal(b1-4)GlcNAc
# Outline: as §1
# [26] = biological target: Fuc(a1-2)Gal(b1-4)GlcNAc(b1-2)Man
# Outline: as §1
# [27] = biological target: Fuc(a1-2)Gal(b1-4)GlcNAc(b1-2)Man(a1-3)[Fuc(a1-2)Gal(b1-4)GlcNAc(b1-2)Man(a1-6)]Man(b1-4)GlcNAc(b1-4)GlcNAc
# Outline: as §1
# [28] = biological target: Fuc(a1-2)Gal(b1-4)GlcNAc(b1-2)Man(a1-3)[Fuc(a1-2)Gal(b1-4)GlcNAc(b1-2)Man(a1-6)]Man(b1-4)GlcNAc(b1-4)[Fuc(a1-6)]GlcNAc
# Outline: as §1
# [29] = biological target: Fuc(a1-2)Gal(b1-4)GlcNAc(b1-2)[Fuc(a1-2)Gal(b1-4)GlcNAc(b1-4)]Man(a1-3)[Fuc(a1-2)Gal(b1-4)GlcNAc(b1-2)Man(a1-6)]Man(b1-4)GlcNAc(b1-4)GlcNAc
# Outline: as §1
# [30] = biological target: Fuc(a1-2)Gal(b1-4)GlcNAc(b1-3)Gal(b1-4)GlcNAc
# Outline: as §1
binder,measurement,setting,value
"rAAL-I144G (Agrocybe aegerita), Q6WY08 (protein) MQGVNIYNISAGTSVDLAAPVTTGDIVTFFSSALNLNAGAGNPNNTTLNLFAENGAYLLHIAFRLQENVIIFNSRQPDGPWLVEQRVSDVANQFAGIDGKAMVTVFDHGDKYQVVINEKTVIQYTKQISGLTLSLSYNATEETSGFSTVVEAVTYTGLALEHHHHHH",glycan array binding signal (z-score),[1],-0.104
same,glycan array binding signal (z-score),[2],-0.116
same,glycan array binding signal (z-score),[3],-0.171
same,glycan array binding signal (z-score),[4],-0.189
same,glycan array binding signal (z-score),[5],-0.131
same,glycan array binding signal (z-score),[6],-0.112
same,glycan array binding signal (z-score),[7],-0.095
same,glycan array binding signal (z-score),[8],-0.126
same,glycan array binding signal (z-score),[9],-0.006
same,glycan array binding signal (z-score),[10],-0.129
same,glycan array binding signal (z-score),[11],-0.144
same,glycan array binding signal (z-score),[12],-0.196
same,glycan array binding signal (z-score),[13],-0.208
same,glycan array binding signal (z-score),[14],-0.161
same,glycan array binding signal (z-score),[15],-0.125
same,glycan array binding signal (z-score),[16],-0.115
same,glycan array binding signal (z-score),[17],-0.109
same,glycan array binding signal (z-score),[18],-0.138
same,glycan array binding signal (z-score),[19],-0.086
same,glycan array binding signal (z-score),[20],-0.125
same,glycan array binding signal (z-score),[21],-0.151
same,glycan array binding signal (z-score),[22],0.088
same,glycan array binding signal (z-score),[23],-0.192
same,glycan array binding signal (z-score),[24],-0.183
same,glycan array binding signal (z-score),[25],-0.107
same,glycan array binding signal (z-score),[26],-0.189
same,glycan array binding signal (z-score),[27],-0.063
same,glycan array binding signal (z-score),[28],-0.097
same,glycan array binding signal (z-score),[29],-0.131
same,glycan array binding signal (z-score),[30],-0.067

# Reference: the supplement of paper PMC8728848
